From publication PMC4336329 (PLoS ONE, 2015)
Screen size: about 310,000 compounds; about 14,000 (4.5%) showed an effect of 50% or more. Effects have a minus sign here. The list shows a part of the results.

Biological target: human ether-à-go-go-related gene (hERG) potassium channel (human, UniProt Q12809)
Assay: primary screen, population patch clamp on CHO cells stably expressing hERG
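Also: peak tail current of the secondary pulse compared with the same well before compound.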

Sequence of human ether-à-go-go-related gene (hERG) potassium channel (Q12809 whole entry, looked up): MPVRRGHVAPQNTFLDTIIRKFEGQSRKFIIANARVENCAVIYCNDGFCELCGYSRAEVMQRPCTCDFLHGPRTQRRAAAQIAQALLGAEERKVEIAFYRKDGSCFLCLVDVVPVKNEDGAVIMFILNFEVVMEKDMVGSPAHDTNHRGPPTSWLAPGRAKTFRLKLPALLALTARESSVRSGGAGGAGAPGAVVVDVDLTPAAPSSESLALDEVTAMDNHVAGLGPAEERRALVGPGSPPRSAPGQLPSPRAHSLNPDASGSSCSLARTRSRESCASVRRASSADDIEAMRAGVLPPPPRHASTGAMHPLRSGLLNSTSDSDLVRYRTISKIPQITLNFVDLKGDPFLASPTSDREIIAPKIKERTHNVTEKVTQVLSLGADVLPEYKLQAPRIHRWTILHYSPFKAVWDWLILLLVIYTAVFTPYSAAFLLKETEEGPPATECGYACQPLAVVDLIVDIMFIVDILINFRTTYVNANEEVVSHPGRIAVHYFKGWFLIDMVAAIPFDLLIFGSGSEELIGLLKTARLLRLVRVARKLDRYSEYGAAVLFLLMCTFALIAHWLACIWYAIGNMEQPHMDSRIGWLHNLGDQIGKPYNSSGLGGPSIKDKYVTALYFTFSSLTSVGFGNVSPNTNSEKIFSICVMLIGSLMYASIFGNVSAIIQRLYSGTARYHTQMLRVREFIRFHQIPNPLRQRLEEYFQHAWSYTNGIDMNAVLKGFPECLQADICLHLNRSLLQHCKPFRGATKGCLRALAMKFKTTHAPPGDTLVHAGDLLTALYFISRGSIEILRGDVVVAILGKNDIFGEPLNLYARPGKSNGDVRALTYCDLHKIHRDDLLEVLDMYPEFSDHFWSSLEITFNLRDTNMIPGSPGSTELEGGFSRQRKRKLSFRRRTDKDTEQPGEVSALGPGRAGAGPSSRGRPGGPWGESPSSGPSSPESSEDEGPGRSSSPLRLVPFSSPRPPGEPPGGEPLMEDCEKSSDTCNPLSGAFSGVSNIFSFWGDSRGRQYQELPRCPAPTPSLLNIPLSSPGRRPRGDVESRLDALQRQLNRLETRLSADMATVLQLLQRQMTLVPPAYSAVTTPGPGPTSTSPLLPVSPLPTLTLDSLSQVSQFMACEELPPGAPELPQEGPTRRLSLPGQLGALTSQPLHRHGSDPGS

SMILES | hERG current change (%, negative = inhibition) at 10uM
Nc1ncnc(Nc2ccccc2)n1 | -3.59%
COc1cccc(C2CC(=O)Nc3cc(OC)c(OC)c(OC)c32)c1OC (stereo not shown) | -19.6%
Cc1ccc(NC(=O)c2ccc3c(c2)C(=O)N(c2ccccc2C)C3=O)nc1 | 4.99%
CCOC(=O)c1cccc(NC(=O)CSc2nncn2-c2ccccn2)c1 | -2.28%
O=C(c1cc(-c2ccccc2Cl)nc2ccc(Br)cc12)N1CCN(c2ccccn2)CC1 | -11.3%
Cn1cc(S(=O)(=O)NC2CCCC2)c(=O)n(C)c1=O | -5.74%
COc1ccc(N(C(=O)c2ccco2)S(=O)(=O)c2cccc([N+](=O)[O-])c2)cc1 | 23.4%
C#CCOC(=O)c1ccccc1C(=O)OCC#C | 3.64%
CCCOc1ccc(C(=O)N(CC(C)C)c2c(N)n(Cc3ccccc3)c(=O)[nH]c2=O)cc1 | -11.7%
O=S(=O)(c1ccc(S(=O)(=O)N2CCN(C/C=C/c3ccccc3)CC2)cc1)N1CCCC1 | 11.6%
COc1cc(C2CC(=O)c3cnc(N)nc3C2)cc(OC)c1OC (stereo not shown) | 9.98%
CCc1ccc(N2C(=O)C(Cl)=C(N3CCOCC3)C2=O)cc1 | 2.6%
N#CC1=C(N)Oc2n[nH]c(-c3cccs3)c2C1C1CCCCC1 (stereo not shown) | 8.73%
CCN(C(=O)COC(=O)CNC(=O)c1ccc(C)s1)c1ccccc1 | 16.5%
COc1ccc(N2CCN(c3nc(Cl)nc(Nc4ccc(F)cc4)n3)CC2)cc1 | 7.8%
CN(C(=O)c1ccc(S(=O)(=O)N(C)C)cc1)c1ccc2ccccc2c1 | -18.4%
CC(C)COc1ccc(-c2nn(-c3ccccc3)cc2/C=C2/SC(=S)N(CC(=O)O)C2=O)cc1 | 10.2%
Cc1ccc(C)c(N(C(=O)CNC(=O)c2ccco2)C(C(=O)NC2CCCCC2)c2ccncc2)c1 (stereo not shown) | 3.37%
COc1ccc(/C=C\C(=O)c2c(O)ccc3c(C)cc(=O)oc23)cc1 | 17.1%
CC(C)C[C@H](NC(=O)C1(c2ccccc2)CCN(C(=O)[C@H]2CSCN2C(=O)OC(C)(C)C)CC1)C(=O)O | -8.02%
O=C(CCNS(=O)(=O)c1ccccc1F)NC1CCCCCC1 | -3.14%
O=C(COC(=O)c1cn(-c2ccccc2)nc1-c1ccccc1)c1cccc([N+](=O)[O-])c1 | 12.5%

SMILES | hERG current change (%, negative = inhibition) at 10uM
CC(C)Oc1ccc(C(=O)/C(=C\c2cccs2)c2nc3ccccc3o2)cc1 | 24.3%
CCOC(=O)Cc1csc(/C(=N/O)C(N)=O)n1 | 18%
O=C(O)COc1ccccc1Cc1ccccc1 | 5.22%
O=C(O)c1cc(Nc2cc(Cl)c3nonc3c2[N+](=O)[O-])ccc1O | 13.6%
CC(=O)NC1(C(=O)O)CCCC1 | 7.13%
O=C(Nc1ccccc1)C12CC3CC(C1)CC(n1cnc([N+](=O)[O-])n1)(C3)C2 | -59.6%
Cc1ccc(NC(=O)CSc2nc3c(cc2C#N)C(=O)CCC3)cc1S(=O)(=O)N(C)C | -16.3%
CCOC(=O)c1c(C)[nH]c(C)c1C(=O)CSc1nc2ccccc2n1CC | -10.7%
CCN(CC)C(=O)CSc1nc2ccccc2c(=O)n1CC | -1.18%
COc1ccc(OC)c(CNC(=O)Cc2c(C(=O)O)[nH]c3ccc(Cl)cc23)c1 | 17.4%
CCN(CC(=O)NCc1ccc(F)cc1)C(=O)c1cccnc1SC | -62.9%
O=C(N=C1SC2CS(=O)(=O)CC2N1Cc1ccccc1)C1CCCO1 (stereo not shown) | 7.06%
NC(=O)C(Cc1ccccc1)N1C(=O)c2ccccc2C1=O (stereo not shown) | 15%
O=C(Cc1nc2ccccc2[nH]1)N/N=C/c1ccccc1 | 13.1%
COc1cc2c(C(=O)N3CCN(C)CC3)c(C)n(C)c2cc1Br | -9.17%
COc1ccc(OCC(=O)NNC(=O)c2cc3ccccc3o2)cc1 | 7.23%
COc1ccc(C(=O)Nc2cccc([N+](=O)[O-])c2)cc1Br | 0.628%
Clc1ccc(-c2noc(COc3ccccc3)n2)cc1 | 1.83%
CCOC(=O)Cn1nnc(-c2ccc(S(C)(=O)=O)cc2)n1 | 23.2%
Clc1ccc(-c2cn(-c3ccccc3)c3[n+]2CCS3)cc1.[Br-] | -59.4%
N[C@@H](Cc1cc(Br)c(O)c(Br)c1)C(=O)O | 8.52%
CCOc1ccccc1N1CCN(S(=O)(=O)c2cccs2)CC1 | 2.73%

SMILES | hERG current change (%, negative = inhibition) at 10uM
CN(C)C(=O)CN1CCN(Cc2nc(CC3CC3)no2)CC1 | 18.6%
Cc1ccc(/C=C/C(=O)OC(C)C(=O)NC2CCCCC2C)o1 (stereo not shown) | -21.8%
Cc1cc(C)c(OCCOCCN2CCNCC2)c(C)c1.O=C(O)C(=O)O | 6.59%
COc1cc(NC(=O)Cn2c(-c3cncs3)nc3ccccc32)cc(OC)c1OC | -31.3%
CC1(C)Cc2ccccc2C(N)=C1C#N | -0.0363%
COc1ccccc1NS(=O)(=O)c1cccc(C(=O)N/N=C/c2cn(-c3ccccc3)nc2-c2ccccc2)c1 | -32.9%
CC/C(=N\Nc1cccc2ccccc12)c1c(O)[nH]c(=O)[nH]c1=O | 10.5%
COC(=O)c1sccc1NC(=O)Nc1cccc(C(C)=O)c1 | -4.61%
CCC1CCC/C1=N\NC(=O)c1ccc(Cl)cc1 (stereo not shown) | -4.87%
Cc1ccccc1S(=O)(=O)Nc1ncc(C(F)(F)F)cc1Cl | 27.3%
NC(=O)Cn1cnc2nc3n(c2c1=O)CCC3 | -4.97%
C=CCn1c(SCC(=O)NC2CCCC2)nc2sc(C)cc2c1=O | -5.84%
COc1ccccc1CN1CCNC(=O)C1CC(=O)NCCC1=CCCCC1 (stereo not shown) | 14.7%
NC(=O)NC(=O)COC(=O)CCCCCNS(=O)(=O)c1ccc2c(c1)OCCO2 | -1.97%
O=C(COc1ccc(S(=O)(=O)NC2CCCC2)cc1)NCC1CCCO1 (stereo not shown) | 22.2%
FC(F)(F)c1cccc(Cc2noc(CN3CCC(N4CCCCC4)CC3)n2)c1 | -74.7%
O=c1cnc2cc([N+](=O)[O-])ccc2[nH]1 | 20.9%
Cc1ccc(-n2nc3c(c2NC(=O)c2ccco2)CS(=O)(=O)C3)cc1C | -37.2%
CCSc1c([N+](=O)[O-])c(=O)n(-c2ccccc2)c2ccccc12 | -1.42%
COc1ccccc1N1CCN(C2CCCN(Cc3ccc(Cl)cc3)C2)CC1 (stereo not shown) | -41.1%
Cc1occc1C(=O)N1CCC2(CCCN(Cc3ccc(F)c(F)c3)C2)C1 (stereo not shown) | -16.4%
Cc1ccc(NC(=O)C(c2ccc(Cl)cc2)N2CCOCC2)cc1 (stereo not shown) | -8.18%

SMILES | hERG current change (%, negative = inhibition) at 10uM
Clc1cccc(CN2CCN(Cc3ccco3)CC2)c1.O=C(O)C(=O)O | -7.79%
CC(=O)c1ccc(NC(=O)C[n+]2ccc(N(C)C)cc2)cc1.[Cl-] | -5.89%
Cc1ccc(CNC(=O)CCC(=O)Nc2nnc(C)s2)cc1 | 9.72%
Cc1noc(C)c1COc1cccc(C(=O)Nc2ccc3c(c2)OCO3)c1 | 9.81%
Cc1cccc(OCC(=O)Nc2ccccc2N2CCN(C)CC2)c1 | -51.2%
COCCCNC(=O)CN1C(=O)c2cccc3cccc1c23 | 10.5%
COc1ccc(-c2noc(CCC(=O)NC3CCN(Cc4ccccc4)CC3)n2)cc1 | -45.7%
CCN(C(=O)CSc1ncnc2sccc12)c1c(N)n(Cc2ccccc2)c(=O)[nH]c1=O | 2.15%
CCCC1(C(=O)OCC)NC(c2ccc(N(C)C)cc2)C2C(=O)N(c3ccc(F)cc3)C(=O)C21 (stereo not shown) | -8.18%
O=c1[nH]c(=S)n(Cc2ccc(F)cc2)c(O)c1C=NCC1CCCO1 (stereo not shown) | -61.9%
O=C(NCC1CCCO1)C(=O)NCC(c1ccco1)N1CCN(c2ccccc2)CC1 (stereo not shown) | 0.7%
CCCCCCSc1ccc([C@H]2N[C@@](Cc3ccccc3)(C(=O)OC)[C@H]3C(=O)N(C)C(=O)[C@@H]23)cc1OC.O=C(O)C(F)(F)F | 5.93%
CCN(C1=NS(=O)(=O)c2ccccc21)N(CC)S(=O)(=O)c1ccc(C)cc1 | 19.8%
N#Cc1ccsc1NC(=O)CN1CCCCCC1 | -3.42%
COC(=NC1CCCC1)C(O)c1c[nH]c2ccccc12 (stereo not shown) | -1.61%
CCC(C)/C(C)=N/NC(=O)c1ccc(COc2ccc(Cl)c(C)c2)cc1 (stereo not shown) | 5.21%
COc1ccc(C(CC(=O)Nc2ccc(Cl)cc2F)NC(=O)C(F)(F)F)cc1 (stereo not shown) | 8.62%
CC(C)(C)c1ccc(OCCCC(=O)NC2=NCCS2)cc1 | 1.68%
CN(CC(=O)Nc1ccc(F)cc1)C(=O)Cn1c(=O)oc2ccccc21 | -8.26%
COCC(=O)Nc1cc(C(=O)NCCc2ccccc2)ccc1Cl | -21.3%
CCCCN1C(=O)C2(OCCCO2)c2cccc(C)c21 | 5.29%
CCN(CC)CCNC(=O)C1(O)c2cc(Br)ccc2NC(=O)N1c1cccc(OC)c1 (stereo not shown) | 22%
